For eleven compounds, IC50 results are on record in patent publication US11685745B2, “Substituted benzoxazole and benzofuran compounds as PDE7 inhibitors” (Dart NeuroScience, LLC, priority 2017, dated 2023).

The IC50 is the concentration that inhibits the measured activity by half.

For this experiment, the target named is N-terminal truncated recombinant human PDE7B enzyme (Homo sapiens (Human), UniProt Q9NP56). Put plainly: biochemical.
As for `O=C1Nc2c(Cl)cc3cc(C(=O)N4CCC(O)(c5ccccc5)CC4)oc3c2C2(CCCCC2)N1` [Example 441, 5′-Chloro-2′-(4-hydroxy-4-phenylpiperidine-1-carbonyl)-7′,8′-dihydro-6′H-spiro[cyclohexane-1,9′-furo[2,3-f]quinazoline]-7′-one], the IC50 fell in the range of 10 to 100 nM.

Take `O=C1Nc2c(Cl)cc3cc(C(=O)N4CCN(C(=O)C5CCCO5)CC4)oc3c2C2(CCCCC2)N1` (centres unmarked) [Example 442, 5′-Chloro-2′-[4-(oxolane-2-carbonyl)piperazine-1-carbonyl]-7′,8′-dihydro-6′H-spiro[cyclohexane-1,9′-furo[2,3-f]quinazoline]-7′-one]: the concentration for half-maximal inhibition (IC50) lay within 10 to 100 nM.

For `CN(C)CC1CCN(C(=O)c2cc3cc(Cl)c4c(c3o2)C2(CCCCC2)NC(=O)N4)CC1` [Example 443, 5′-Chloro-2′-{4-[(dimethylamino)methyl]piperidine-1-carbonyl}-7′,8′-dihydro-6′H-spiro[cyclohexane-1,9′-furo[2,3-f]quinazoline]-7′-one], the half-maximal inhibitory concentration (IC50) is 10 to 100 nM.

As to `CNC(=O)C1CCN(C(=O)c2cc3cc(Cl)c4c(c3o2)C2(CCCCC2)NC(=O)N4)CC1` [Example 444, 1-({5′-Chloro-7′-oxo-7′,8′-dihydro-6′H-spiro[cyclohexane-1,9′-furo[2,3-f]quinazoline]-2′-yl}carbonyl)-N-methylpiperidine-4-carboxamide], the half-maximal inhibitory concentration (IC50) is 10 to 100 nM.

As for `COc1ccc(CCNC(=O)c2cc3cc(Cl)c4c(c3o2)C2(CCCCC2)NC(=O)N4)cc1` [Example 445, 5′-Chloro-N-[2-(4-methoxyphenyl)ethyl]-7′-oxo-7′,8′-dihydro-6′H-spiro[cyclohexane-1,9′-furo[2,3-f]quinazoline]-2′-carboxamide], the half-inhibitory concentration (IC50) is 10 to 100 nM.

Consider `Cc1noc(C)c1CCN(C)C(=O)c1cc2cc(Cl)c3c(c2o1)C1(CCCCC1)NC(=O)N3` [Example 446, 5′-Chloro-N-[2-(dimethyl-1,2-oxazol-4-yl)ethyl]-N-methyl-7′-oxo-7′,8′-dihydro-6′H-spiro[cyclohexane-1,9′-furo[2,3-f]quinazoline]-2′-carboxamide], for which the half-maximal inhibitory concentration (IC50) lay in the range of 10 to 100 nM.

In the case of `O=C1Nc2c(Cl)cc3cc(C(=O)N4CCN(c5nccs5)CC4)oc3c2C2(CCCCC2)N1` [Example 447, 5′-Chloro-2′-[4-(1,3-thiazol-2-yl)piperazine-1-carbonyl]-7′,8′-dihydro-6′H-spiro[cyclohexane-1,9′-furo[2,3-f]quinazoline]-7′-one], the half-maximal inhibitory concentration (IC50) fell in the range of 10 to 100 nM.

Take `CN(Cc1ccc(-n2ccnc2)cc1)C(=O)c1cc2cc(Cl)c3c(c2o1)C1(CCCCC1)NC(=O)N3` [Example 448, 5′-Chloro-N-{[4-(1H-imidazol-1-yl)phenyl]methyl}-N-methyl-7′-oxo-7′,8′-dihydro-6′H-spiro[cyclohexane-1,9′-furo[2,3-f]quinazoline]-2′-carboxamide]: the IC50 was 10 to 100 nM.

`CC(C)(C)N1CCN(C(=O)c2cc3cc(Cl)c4c(c3o2)C2(CCCCC2)NC(=O)N4)CC1` [Example 449, 2′-(4-tert-Butylpiperazine-1-carbonyl)-5′-chloro-7′,8′-dihydro-6′H-spiro[cyclohexane-1,9′-furo[2,3-f]quinazoline]-7′-one]: the IC50 lay within 100 to 1000 nM.

Regarding `COc1cccc(CCNC(=O)c2cc3cc(Cl)c4c(c3o2)C2(CCCCC2)NC(=O)N4)c1` [Example 450, 5′-Chloro-N-[2-(3-methoxyphenyl)ethyl]-7′-oxo-7′,8′-dihydro-6′H-spiro[cyclohexane-1,9′-furo[2,3-f]quinazoline]-2′-carboxamide], the concentration for half-maximal inhibition (IC50) fell in the range of 10 to 100 nM.

`O=C1Nc2c(Cl)cc3cc(C(=O)N4CCC(N5CCCC5)CC4)oc3c2C2(CCCCC2)N1` [Example 451, 5′-Chloro-2′-[4-(pyrrolidin-1-yl)piperidine-1-carbonyl]-7′,8′-dihydro-6′H-spiro[cyclohexane-1,9′-furo[2,3-f]quinazoline]-7′-one]: the IC50 lay within 100 to 1000 nM.
